Assay results from article PMC4336329 (PLoS ONE, 2015).
Among all 310,000 compounds or so, about 14,000 (4.5%) showed an effect of 50% or more. Effects have a minus sign here. Some of the results follow.

target: human ether-à-go-go-related gene (hERG) potassium channel (human, UniProt Q12809); test: primary screen, population patch clamp on CHO cells stably expressing hERG
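Also: peak tail current of the secondary pulse compared with the same well before compound.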

human ether-à-go-go-related gene (hERG) potassium channel, sequence (Q12809 whole entry, looked up): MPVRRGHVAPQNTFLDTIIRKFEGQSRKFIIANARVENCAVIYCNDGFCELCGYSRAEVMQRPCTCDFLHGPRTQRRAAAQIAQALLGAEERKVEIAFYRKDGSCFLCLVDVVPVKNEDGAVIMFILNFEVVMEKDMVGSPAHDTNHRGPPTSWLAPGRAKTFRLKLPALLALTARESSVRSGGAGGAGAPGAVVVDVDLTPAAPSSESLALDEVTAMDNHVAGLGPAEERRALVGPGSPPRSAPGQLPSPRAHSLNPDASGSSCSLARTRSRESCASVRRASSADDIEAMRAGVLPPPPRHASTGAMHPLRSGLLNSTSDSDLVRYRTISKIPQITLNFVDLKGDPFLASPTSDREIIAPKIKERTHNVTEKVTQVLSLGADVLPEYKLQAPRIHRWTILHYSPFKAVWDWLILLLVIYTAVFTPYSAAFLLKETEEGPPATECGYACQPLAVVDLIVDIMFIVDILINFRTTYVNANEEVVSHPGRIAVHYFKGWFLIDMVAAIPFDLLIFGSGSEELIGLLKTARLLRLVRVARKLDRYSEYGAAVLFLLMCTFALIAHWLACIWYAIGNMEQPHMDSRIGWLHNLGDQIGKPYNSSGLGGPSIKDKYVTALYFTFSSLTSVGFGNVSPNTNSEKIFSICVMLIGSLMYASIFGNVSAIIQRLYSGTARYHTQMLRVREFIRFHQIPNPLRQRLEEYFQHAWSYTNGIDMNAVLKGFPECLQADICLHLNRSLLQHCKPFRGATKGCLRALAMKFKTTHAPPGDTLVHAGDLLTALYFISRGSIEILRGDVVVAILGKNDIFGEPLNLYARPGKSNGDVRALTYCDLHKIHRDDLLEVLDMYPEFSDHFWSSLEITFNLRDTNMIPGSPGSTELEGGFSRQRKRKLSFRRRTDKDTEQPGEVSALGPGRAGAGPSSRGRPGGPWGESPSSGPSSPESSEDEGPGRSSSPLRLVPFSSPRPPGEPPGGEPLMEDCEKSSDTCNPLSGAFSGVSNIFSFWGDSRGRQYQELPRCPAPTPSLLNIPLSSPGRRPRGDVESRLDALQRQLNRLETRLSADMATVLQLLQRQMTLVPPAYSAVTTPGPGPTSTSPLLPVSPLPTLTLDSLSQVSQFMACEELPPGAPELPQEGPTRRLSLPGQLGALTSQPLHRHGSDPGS

Point of comparison: Cc1ccc(S(=O)(=O)N2CCCC2)cc1C(=O)NC1CCCCC1, “hERG current change (%, negative = inhibition) at 10uM” value 17.6%. Against it:
- CC(=O)c1csc(COc2cc(Cl)cc(Cl)c2)n1 — lower, 3.06%
- N#Cc1ccc(OS(=O)(=O)c2ccc(-c3ccon3)s2)cc1 — lower, -45.6%
- N#CCCCSc1nnc(-c2ccccn2)o1 — lower, 7.48%
- CCOc1cccc2c1OC1(C)CC2NC(=O)N1c1cccc(C(=O)N2CCN(c3ccccn3)CC2)c1 (centres unmarked) — lower, -1.89%
- COc1ccc(CC(=O)NCc2nnc(SCC(=O)Nc3nccs3)n2-c2ccccc2)cc1 — lower, 2.7%
- COCCN(C(=O)COC(=O)CNC(=O)c1cccs1)c1c(N)n(Cc2ccccc2)c(=O)[nH]c1=O — lower, 9.31%
- COc1ccc(C(CNC(=O)CCOc2ccccc2)N(C)C)cc1 (centres unmarked) — lower, -29.4%
- Clc1ccc(Cn2c(-c3cccnc3Cl)nc3ccccc32)cc1 — lower, -70.7%
- O=C(O)c1ccc(OCCOc2ccccc2)cc1 — lower, 13.6%
- C=CCOc1c(Br)cc(C2C3=C(CCCC3=O)N(C)C3=C2C(=O)CCC3)cc1OCC — lower, 1.88%
- O=C(CNc1ccccc1F)Nc1cc(S(=O)(=O)N2CCCCC2)ccc1Cl — lower, 5.42%
- CCOC(=O)c1c(C)[nH]c(C)c1C(=O)COC(=O)c1cc(OC)c(OC)cc1OC — lower, 10.1%
- C=CCn1c(SCc2c(Cl)cccc2Cl)nnc1-c1cccnc1 — lower, -30.6%
- CC(C(=O)Nc1ccc(S(=O)(=O)N2CCOCC2)cc1)N(c1ccccc1)S(C)(=O)=O (centres unmarked) — lower, 4.71%
- CS(=O)(=O)N1N=C(c2ccccc2)CC1c1ccc2c(c1)OCO2 (centres unmarked) — lower, 13.9%
- O=C(COC(=O)CNC(=O)c1cccc(Br)c1)Nc1nnc(-c2ccccc2)o1 — lower, -0.546%
- CCCCn1nc(CC(=O)O)c2ccccc2c1=O — lower, 4.35%
- CCOC(=O)c1sc(N)c(C#N)c1COC(=O)CNC(=O)c1cc(OC)c(OC)c(OC)c1 — lower, -25%
- CCOc1cc(/C=C2\SC(=O)N=C2N)ccc1O — lower, 6.75%
- S=C(Nc1ccccc1)N1CCN(c2ccc(N3CCOCC3)nn2)CC1 — lower, 2.38%
- C=CCNC(=O)c1ccc(-n2cccc2)cc1 — lower, 8.49%
- CC(=O)Nc1ccc(/C=N\NC(=O)CNS(=O)(=O)c2ccc([N+](=O)[O-])cc2)cc1 — lower, -4.32%
- CCc1cc(=O)oc2c(CN3CCCC3)c(O)c(Cl)cc12 — lower, -16.6%
- CC12CCC(C(=O)N(c3ccccn3)c3ccccn3)(OC1=O)C2(C)C (centres unmarked) — lower, 3.38%
- O=C(NCc1ccccc1)c1ccc(CN2CCC(Cc3ccccc3)CC2)cc1 — lower, -70.3%
- O=C(Cc1n[nH]c(=O)c2ccccc12)NCc1ccc(Cl)cc1 — lower, -17.5%
- Cc1ccc2c(Cl)cc(Cl)c(OCC(=O)N3CCCC3)c2n1 — lower, -2.01%
- C=CCNC(=O)c1onc(CSc2ccc(C(C)C)cc2)c1C(=O)O — lower, 7.69%
- O=C(c1cc([N+](=O)[O-])ccc1Cl)N1CCN(c2ccccc2)CC1 — lower, -6.43%
- Cc1cc(C)n(C(=O)CCCC(=O)n2nc(C)cc2C)n1 — lower, -4.17%
- CNC(=O)c1c(NC(=O)c2cc(-c3cc(C)c(C)cc3O)n[nH]2)sc2c1CCCC2 — lower, 12.2%
- COc1c2ccoc2c(OCC=C(C)C)c2oc(=O)ccc12 — lower, 11.3%
- COc1ccc(NC(=O)C(Cc2ccccc2)NC(=O)c2ccco2)cc1OC (centres unmarked) — lower, 7.59%
- Cc1cc2cc(C)c3nnc(SCC(=O)Nc4ccc(S(=O)(=O)N5CCCCC5)cc4)n3c2cc1C — lower, -19.2%
- Cc1cc(=O)[nH]c(SCC(=O)NCCOc2ccccc2)n1 — lower, 1.39%
- O=C(NC(=S)NCc1cccnc1)c1ccccc1 — lower, -6.56%
- COCCN(CC(=O)Nc1cccc(C)c1C)C(=O)c1ccc(-n2cccn2)cc1 — lower, -8.85%
- Cc1ccccc1-n1ncc2c(SCC(=O)NC3CCCC3)ncnc21 — lower, 2.9%
- Cc1cccc(C)c1NC(=O)COC(=O)CCC(=O)c1cccs1 — lower, 2.29%
- COC(=O)c1sccc1NC(=S)Nc1cc(C)cc(C)c1 — lower, 7.24%
- CCc1nc(SCC(=O)Nc2ccnc3ccccc23)n[nH]1 — lower, 5.73%
- O=C(Nc1ccccc1)c1nsnc1C(=O)Nc1ccccc1 — lower, -24.8%
- Cc1nnc(SCC(=O)Nc2sc3c(c2C(=O)c2ccccc2)CCCC3)s1 — higher, 18.2%
- CN1C(=O)c2ccc(NC(=O)c3c(C(=O)O)cccc3[N+](=O)[O-])cc2C1=O — lower, 4.81%
- CC(NC(=O)/C(=C\c1ccco1)NC(=O)c1ccco1)C(=O)O (centres unmarked) — lower, 14.8%
- COCCNC(=O)CN(Cc1ccccc1)S(=O)(=O)c1ccc2nc(C)sc2c1 — lower, -2.94%
- COc1ccccc1CN1CCCC(N2CCN(c3ccccc3OC)CC2)C1 (centres unmarked) — lower, -11.9%
- O=C(Cc1ccccc1)N1CCN(C(=O)c2ccc([N+](=O)[O-])cc2)CC1 — lower, -51%
- CCN(C(=S)Nc1cc(S(=O)(=O)N2CCOCC2)ccc1Cl)c1cccc2ccccc12 — lower, -1.89%
- CN(C(=O)CSc1cn(CC(=O)N2CCOCC2)c2ccccc12)c1ccccc1 — higher, 18.5%
- CCOC(=O)/C=c1\s/c(=C\c2ccc(C(=O)OC)cc2)c(=O)n1CC(=O)Nc1ccccc1.Cl — higher, 19.5%
- COc1ccc(OCCC(=O)NCCN2CCOCC2)cc1.Cl — lower, 12.7%
- Cc1c(CCCN)c2ccccc2n1Cc1ccccc1.Cl — lower, -16.7%
- Cc1c(NC(=O)c2ccc(COc3ccc4ccccc4c3)o2)c(=O)n(-c2ccccc2)n1C — lower, -5.35%
- O=C(Nc1ccccn1)C1CCN(C(=O)c2ccc(F)cc2)CC1 — lower, 3.81%
- CC1(c2nnc(-c3ccccc3)o2)CC(c2ccc(F)cc2)=NO1 (centres unmarked) — lower, -18.8%
- COc1ccccc1CNC(=O)C1CCN(S(=O)(=O)c2ccc3c(c2)NC(=O)CO3)CC1 — lower, 1.17%
- CCn1c(NCCc2ccc(OC)c(OC)c2)nc2c1c(=O)n(C)c(=O)n2C — lower, 8.96%
- O=C(Nc1ccc(N2CCOCC2)cc1)c1cc(-n2cnnc2)ccc1Cl — the same, 17.6%
- COc1ccc(CC(=O)N2CCCC(CNC(=O)c3ccccc3Cl)C2)cc1 (centres unmarked) — lower, -2.18%
- Cn1c(CCNS(=O)(=O)c2ccccc2)nnc1SCc1cccnc1 — lower, 11.1%
- Cc1c(Br)c([N+](=O)[O-])nn1CC(=O)NCc1ccccc1 — lower, -2.99%
- Cc1ccc(CNS(=O)(=O)c2ccc(CN3C(=O)c4cccnc4C3=O)s2)o1 — lower, -4.36%
- C=COCCNC(=O)C(=O)NC(C)C — lower, -0.542%
- COC(=O)C1=C(C)N(c2cccc3ccccc23)C(=O)C1 — lower, -6.64%
- COc1ccc(CN(C(=O)CCC(=O)N2CCCCC2)c2nccs2)cc1OC — lower, -5.31%
- CC1(C)Cc2c(sc3nc(NCCN4CCOCC4)n4ncnc4c23)CO1 — lower, -5.72%
- CN(C)S(=O)(=O)c1ccc(C(=O)Nc2nnc(-c3cccs3)o2)cc1 — higher, 31.7%
- CC(C)C(=O)c1cn(Cc2ccccc2C#N)c2ccccc12 — lower, -10.8%
- O=C1C2C3CC(C(Br)C3Br)C2C(=O)N1c1nccs1 (centres unmarked) — lower, 11.2%
- Cc1nn(C)c(C)c1/C=C/C(=O)c1cccs1 — lower, -8.08%
- CCCNC(=O)N1CCCC(C(=O)c2cccc(Cl)c2)C1 (centres unmarked) — lower, -8.61%
- CCOC(=O)C1CCN(C(=O)CN(Cc2ccccc2)S(C)(=O)=O)CC1 — lower, -11.1%
- CCC1(C)Cc2c(c(=O)n(-c3ccccc3)c3ncnc(N)c23)CO1 (centres unmarked) — lower, 7.92%
- O=C(Nc1ccc2c(c1)OCO2)c1c(F)cccc1F — lower, 3.95%
- COCCCNCC(=O)Nc1sc(C)c(C)c1C(=O)OC.O=C(O)C(=O)O — lower, -2.86%
- CC1CN(C(=O)c2ccc(S(=O)(=O)Nc3ccccc3Cl)cc2)CC(C)O1 (centres unmarked) — lower, 13.3%
- Oc1ccc(-n2cnnn2)cc1 — lower, 9.44%
- c1cn(CCCNc2ncnc3nc[nH]c23)cn1 — lower, 8.93%
- CCN1CCN(C(=S)Nc2ccccc2Cl)CC1 — higher, 19.4%
- Cc1ccc(N=Nc2c(=O)[nH]n3c(C)cc(C)nc23)cc1 — lower, -3.62%
- COC(=O)c1cccc(NC(=O)Nc2ccc(Cl)c(Cl)c2)c1 — lower, -0.798%
- Cc1ccc(S(=O)(=O)NC2CCCC2)cc1C(N)=O — higher, 20.1%
- Brc1ccc(-c2noc(-c3ccccn3)n2)o1 — lower, 2.68%
- COc1ccc(C/C(N)=N/n2cnnc2)cc1 — lower, 4.82%
- Cc1ccc(NC(=O)CN2C(=O)S/C(=C\c3ccc(-c4cccc(C(=O)O)c4C)o3)C2=O)cc1 — lower, 2.07%
- COc1ccc2cc(CCNC(=O)c3c(-c4ccccc4Cl)noc3C)c(=O)[nH]c2c1 — lower, -4.66%
- Cc1ccccc1NC(=O)c1cccc2nccnc12 — lower, -12.7%
